US8067379B2, “Sulfur compounds as inhibitors of hepatitis C virus NS3 serine protease” (Schering Corporation, priority 2004, dated 2011)

molecular target: Recombinant heterodimeric HCV NS3/NS4A protease (strain 1a) (Hepatitis C virus genotype 1a, UniProt P27958); assay: Spectrophotometric assay for HCV serine protease inhibitory activity (chromogenic ester substrates); type: biochemical; conditions: Table 3, sulfone compounds, rows without Prep. Ex. number; read-out: Ki* range (class symbol, unlabelled structures at end of sulfone table, column without head)

Which Ki does the source give for C=CCNC(=O)C(=O)C(CC1CC1)NC(=O)[C@@H]1[C@@H]2[C@H](CN1C(=O)[C@@H](NC(=O)NC1(CS(=O)(=O)C(C)(C)C)CCCCC1)C(C)(C)C)[C@@H]2c1ccccc1 (stereo partly drawn) [drawing 650] here?
The Ki was greater than 250 nM.

same assay, conditions: Table 4; read-out: Ki* range

C=CCNC(=O)C(=O)C(CCC)NC(=O)[C@@H]1[C@@H]2[C@H](CN1C(=O)[C@@H](NC(=O)N[C@H](CS(=O)(=O)N(C)C(C)(C)C)C(C)C)C(C)(C)C)C2(C)C (stereo partly drawn) [Compound 1003] was tested. Which Ki did it give?
Its Ki is less than 75 nM.

C=CCNC(=O)C(=O)C(CC1CC1)NC(=O)[C@@H]1[C@@H]2[C@H](CN1C(=O)[C@@H](NC(=O)N[C@H](CS(=O)(=O)N(C)C(C)(C)C)C(C)C)C(C)(C)C)C2(C)C (stereo partly drawn) [Compound 1004] was tested. Which Ki did it give?
The Ki was less than 75 nM.

Which Ki does the source give for C=CCNC(=O)C(=O)C(CCC)NC(=O)[C@@H]1[C@@H]2[C@H](CN1C(=O)[C@@H](NC(=O)N[C@H](CS(=O)(=O)N(C)C(C)(C)C)C(C)(C)C)C(C)(C)C)C2(C)C (stereo partly drawn) [Compound 1005] here?
The Ki was 75 to 250 nM.

For C=CCNC(=O)C(=O)C(CC1CC1)NC(=O)[C@@H]1[C@@H]2[C@H](CN1C(=O)[C@@H](NC(=O)N[C@H](CS(=O)(=O)N(C)C(C)(C)C)C(C)(C)C)C(C)(C)C)C2(C)C (stereo partly drawn) [Compound 1006], which Ki is on record?
The Ki was 75 to 250 nM.

For C=CCNC(=O)C(=O)C(CCCC)NC(=O)[C@@H]1[C@@H]2[C@H](CN1C(=O)[C@@H](NC(=O)N[C@H](CS(=O)(=O)N(C)C(C)(C)C)C(C)(C)C)C(C)(C)C)C2(C)C (stereo partly drawn) [Compound 1007], which Ki is on record?
Its Ki is 75 to 250 nM.

With C=CCNC(=O)C(=O)C(CCCC)NC(=O)[C@@H]1[C@@H]2[C@H](CN1C(=O)[C@@H](NC(=O)N[C@H](CS(=O)(=O)N(C)C)C(C)(C)C)C(C)(C)C)C2(C)C (stereo partly drawn) [Compound 1008] as the compound, how does the Ki read?
Its Ki is 75 to 250 nM.

same assay, conditions: Table 4A; read-out: Ki* Range

How did the Ki turn out when CC(C)[C@@H](CS(=O)(=O)N(C)C(C)(C)C)NC(=O)N[C@H](C(=O)N1C[C@H]2[C@@H]([C@H]1C(=O)NC(CC1CC1)C(=O)C(N)=O)C2(C)C)C(C)(C)C (stereo partly drawn) [Compound 1100] was run?
Its Ki is less than 75 nM.

C#CCCC(NC(=O)[C@@H]1[C@@H]2[C@H](CN1C(=O)[C@@H](NC(=O)N[C@H](CS(=O)(=O)N(C)C(C)(C)C)C(C)C)C(C)(C)C)C2(C)C)C(=O)C(=O)NCC=C (stereo partly drawn) [Compound 1102] was tested. Which Ki did it give?
Its Ki is less than 75 nM.

With C=CCNC(=O)C(=O)C(CC1CC1)NC(=O)[C@@H]1[C@H]2CC(C)(C)O[C@H]2CN1C(=O)[C@@H](NC(=O)N[C@H](CS(=O)(=O)N(C)C(C)(C)C)C(C)(C)C)C1CCCCC1 (stereo partly drawn) [Compound 1103] as the compound, how does the Ki read?
The Ki was 75 to 250 nM.

How did the Ki turn out when C=CCNC(=O)C(=O)C(CC1CC1)NC(=O)[C@@H]1[C@@H]2[C@H](CN1C(=O)[C@@H](NC(=O)N[C@H](CS(=O)(=O)N(C)C)C(C)(C)C)C(C)(C)C)C2(C)C (stereo partly drawn) [Compound 1104] was run?
Its Ki is 75 to 250 nM.

Which Ki does the source give for C=CCNC(=O)C(=O)C(CCC)NC(=O)[C@@H]1[C@@H]2[C@H](CN1C(=O)[C@@H](NC(=O)N[C@H](CS(=O)(=O)N(C)C(C)(C)C)C(C)(C)C)C1CCCCC1)C2(C)C (stereo partly drawn) [Compound 1105] here?
The Ki was 75 to 250 nM.

How did the Ki turn out when C=CCNC(=O)C(=O)C(CC1CC1)NC(=O)[C@@H]1[C@@H]2[C@H](CN1C(=O)[C@@H](NC(=O)N[C@H](CS(=O)(=O)N(C)C(C)(C)C)C(C)(C)C)C1CCCCC1)C2(C)C (stereo partly drawn) [Compound 1106] was run?
The Ki was 75 to 250 nM.

Which Ki does the source give for C=CCNC(=O)C(=O)C(CC1CC1)NC(=O)[C@@H]1[C@@H]2[C@H](CN1C(=O)[C@@H](NC(=O)N[C@H](CS(=O)(=O)C1CCC1)C(C)C)C(C)(C)C)C2(C)C (stereo partly drawn) [Compound 1107] here?
The Ki was less than 75 nM.

With C=CCNC(=O)C(=O)C(CCCC)NC(=O)[C@@H]1[C@@H]2[C@H](CN1C(=O)[C@@H](NC(=O)N[C@H](CS(=O)(=O)N(C)C(C)(C)C)C(C)C)C1CCCCC1)C2(C)C (stereo partly drawn) [Compound 1108] as the compound, how does the Ki read?
The Ki was less than 75 nM.

With C=CCNC(=O)C(=O)C(CC1CC1)NC(=O)[C@@H]1[C@@H]2[C@H](CN1C(=O)[C@@H](NC(=O)N[C@H](CS(=O)(=O)N(C)C(C)(C)C)C(C)C)C1CCCCC1)C2(C)C (stereo partly drawn) [Compound 1109] as the compound, how does the Ki read?
The Ki was 75 to 250 nM.

C=CCNC(=O)C(=O)C(CCCC)NC(=O)[C@@H]1[C@@H]2[C@H](CN1C(=O)[C@@H](NC(=O)N[C@H](CS(=O)(=O)N(C)C(C)(C)C)C(C)C)C1(C)CCCCC1)C2(C)C (stereo partly drawn) [Compound 1110] was tested. Which Ki did it give?
The Ki was less than 75 nM.

For C=CCNC(=O)C(=O)C(CC1CC1)NC(=O)[C@@H]1[C@@H]2[C@H](CN1C(=O)[C@@H](NC(=O)N[C@H](CS(=O)(=O)N(C)C(C)(C)C)C(C)C)C1(C)CCCCC1)C2(C)C (stereo partly drawn) [Compound 1111], which Ki is on record?
Its Ki is greater than 250 nM.

C=CCNC(=O)C(=O)C(CC1CCC1)NC(=O)[C@@H]1[C@@H]2[C@H](CN1C(=O)[C@@H](NC(=O)N[C@H](CS(=O)(=O)N(C)C(C)(C)C)C(C)C)C1(C)CCCCC1)C2(C)C (stereo partly drawn) [Compound 1112] was tested. Which Ki did it give?
Its Ki is less than 75 nM.

Which Ki does the source give for C=CCNC(=O)C(=O)C(CCC)NC(=O)[C@@H]1[C@@H]2[C@H](CN1C(=O)[C@@H](NC(=O)N[C@H]([C@H]1CCN(Cc3ccc(OC)cc3)S1(=O)=O)C(C)(C)C)C1(C)CCCCC1)C2(C)C (stereo partly drawn) [Compound 1113] here?
Its Ki is greater than 250 nM.

Which Ki does the source give for C=CCNC(=O)C(=O)C(CCCC)NC(=O)[C@@H]1[C@@H]2[C@H](CN1C(=O)[C@@H](NC(=O)N[C@H]([C@H]1CCN(Cc3ccc(OC)cc3)S1(=O)=O)C(C)(C)C)C1(C)CCCCC1)C2(C)C (stereo partly drawn) [Compound 1114] here?
The Ki was greater than 250 nM.

How did the Ki turn out when C=CCNC(=O)C(=O)C(CC1CC1)NC(=O)[C@@H]1[C@@H]2[C@H](CN1C(=O)[C@@H](NC(=O)N[C@H]([C@H]1CCN(Cc3ccc(OC)cc3)S1(=O)=O)C(C)(C)C)C1(C)CCCCC1)C2(C)C (stereo partly drawn) [Compound 1115] was run?
Its Ki is greater than 250 nM.

C#CCCC(NC(=O)[C@@H]1[C@@H]2[C@H](CN1C(=O)[C@@H](NC(=O)N[C@H]([C@H]1CCN(Cc3ccc(OC)cc3)S1(=O)=O)C(C)(C)C)C1(C)CCCCC1)C2(C)C)C(=O)C(=O)NCC=C (stereo partly drawn) [Compound 1116] was tested. Which Ki did it give?
Its Ki is greater than 250 nM.

Which Ki does the source give for C=CCNC(=O)C(=O)C(CC1CCC1)NC(=O)[C@@H]1[C@@H]2[C@H](CN1C(=O)[C@@H](NC(=O)N[C@H]([C@H]1CCN(Cc3ccc(OC)cc3)S1(=O)=O)C(C)(C)C)C1(C)CCCCC1)C2(C)C (stereo partly drawn) [Compound 1117] here?
Its Ki is greater than 250 nM.

C=CCNC(=O)C(=O)C(CCC)NC(=O)[C@@H]1[C@@H]2[C@H](CN1C(=O)[C@@H](NC(=O)N[C@@H]([C@@H]1CCN(Cc3ccc(OC)cc3)S1(=O)=O)C(C)(C)C)C1(C)CCCCC1)C2(C)C (stereo partly drawn) [Compound 1118] was tested. Which Ki did it give?
Its Ki is greater than 250 nM.

For C=CCNC(=O)C(=O)C(CCCC)NC(=O)[C@@H]1[C@@H]2[C@H](CN1C(=O)[C@@H](NC(=O)N[C@@H]([C@@H]1CCN(Cc3ccc(OC)cc3)S1(=O)=O)C(C)(C)C)C1(C)CCCCC1)C2(C)C (stereo partly drawn) [Compound 1119], which Ki is on record?
The Ki was greater than 250 nM.

For C#CCCC(NC(=O)[C@@H]1[C@@H]2[C@H](CN1C(=O)[C@@H](NC(=O)N[C@@H]([C@@H]1CCN(Cc3ccc(OC)cc3)S1(=O)=O)C(C)(C)C)C1(C)CCCCC1)C2(C)C)C(=O)C(=O)NCC=C (stereo partly drawn) [Compound 1121], which Ki is on record?
Its Ki is greater than 250 nM.
